Laboratory results as given in patent US20180009908.

B1: BHA10 HC_WT + BHA10 LC (IgG1) (protein)
chain 1: QVQLVQSGAEVKKPGSSVKVSCKASGYTFTTYYLHWVRYAPGQGLEWMGWIYPGNVHAQYNEKFKGRVTITADKSTSTAYMELSSLRSEDTAVYYCARSWEGFPYWGRGTTVTVSSASTKGPSVFPLAPCSKSTSGGTAALGCLVKDYFPEPVTVSWNSGALTSGVHTFPAVLQSSGLYSLSSVVTVPSSSLGTQTYICNVNHKPSNTKVDKKVEPDSG[human IgG1 Fc not given here]
chain 2: DIQMTQSPSSLSASVGDRVTITCKASQNVGINVAWYQRKPGDAPKSLISSASYRYSGVPSRFSGSGSGTDFTLTISSLQPEDFATYFCQQYDTYPFTFGQGTKVEIKRTVAAPSVFIFPPSKEQLKSGTASVVCLLNNFYPREAKVQWKVDNALQSGNSQESVTEQDSKDSTYSLSSTLTLSKADYEKHKVYACEVTHQGLSSPVTKSFNRGEC
B2: BHA10 HC_7.8_B + BHA10 LC (IgG1) (protein)
chain 1: QVQLVQSGAEVKKPGSSVKVSCKASGYTFTTYYLHWVRYAPGQGLEWMGWIYPGNVHAQYNEKFKGRVTITADKSTSTAYMELSSLRSEDTAVYYCARSWEGFPYWGRGTTVTVSSASTKGPSVFPLAPCSKSTSGGTAALGCLVKDYFPEPVTVSWNSGALTSGVHTFPAVLQSSGLYSLSSVVTVPSSSLGTQTYICNVNHKPSNTKVDKKVEPDSG[human IgG1 Fc with changes not given here]
chain 2: DIQMTQSPSSLSASVGDRVTITCKASQNVGINVAWYQRKPGDAPKSLISSASYRYSGVPSRFSGSGSGTDFTLTISSLQPEDFATYFCQQYDTYPFTFGQGTKVEIKRTVAAPSVFIFPPSKEQLKSGTASVVCLLNNFYPREAKVQWKVDNALQSGNSQESVTEQDSKDSTYSLSSTLTLSKADYEKHKVYACEVTHQGLSSPVTKSFNRGEC

Assay: LCMS, IgG1 BsAb co-expression; HCB homodimer species

| Protein | % BB Homodimer (incorrect assembly) [%] |
| --- | --- |
| B1 | 28.9 |
| B2 | 15.1 |
